Values marked as one replicate rest on one cluster of the flow cell; about a third of the high ones do not repeat.
System: ATP
Assay: switch fluorescence ratio, 500 uM ATP over buffer (Cy3 cluster intensity, sum of 5 cycles each) (fold (ratio)); higher = stronger signal-on switching upon ATP binding; sequences stand for … in TCGTCGGCAGCGTCAGATGTGTATAAGAGACAGTTTTTTTTTTTTTTTTTTTTTTTTT…TC
Settings: aptamer strand: ATP DNA aptamer (quencher-CACCTGGGGGAGTATTGCGGAGGAAGG + anchor), 100 nM annealed; ATP concentration: 500 uM; one replicate
Summary of the method: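 Switching-strand clusters labelled with Cy3 on a modified Illumina MiSeq flow-cell were annealed to 100 nM quencher-labelled ATP aptamer, imaged in selection buffer, and re-imaged after 15 min with 500 uM ATP at 22 °C. This was done over five cycles with NaOH stripping and re-annealing in between. The fluorescence ratio is summed target-cycle over summed buffer-cycle Cy3 intensity per cluster, averaged per switch-domain sequence, excluding clusters outside 100-1000 RFU.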
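Note: ATP exposure 15 min at 22 °C before imaging.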

CAGTACGCGC showed a switch fluorescence ratio of 1.18.

GAAATAAGAA was tested, and the switch fluorescence ratio was 0.982.

Work on TGACTGAACT yielded a switch fluorescence ratio of 1.08.

CTGATAAAGA showed a switch fluorescence ratio of 1.01.

For TAGTATGCAG, the switch fluorescence ratio was 1.04.

AACAGAAGA was tested, and the switch fluorescence ratio was 0.958.

Work on TTTACGTTAG yielded a switch fluorescence ratio of 1.06.

For CTCGACGTGA, the switch fluorescence ratio was 1.24.

With GCTGTACGAC the switch fluorescence ratio was 3.5.

TACGGAAACA was tested, and the switch fluorescence ratio was 1.17.

With ATTTGGCATA the switch fluorescence ratio was 1.01.

Work on TCTGCGACC yielded a switch fluorescence ratio of 1.05.

For TTAGAGAAGC, the switch fluorescence ratio was 1.01.

With GGGCGCCTGT the switch fluorescence ratio was 0.957.

TTTTCTCTGA was tested, and the switch fluorescence ratio was 1.01.

Work on CAATAGGATT yielded a switch fluorescence ratio of 0.948.

For GTCGAAATGA, the switch fluorescence ratio was 0.983.

TGGGTTAGTT was tested, and the switch fluorescence ratio was 0.998.

CGGCAGAGCG showed a switch fluorescence ratio of 1.03.

TGAGTTTTGA showed a switch fluorescence ratio of 0.982.

TGCTAGAAAA gave a switch fluorescence ratio of 0.976.

GTTCTGTATT was tested, and the switch fluorescence ratio was 1.01.

CATCAACGTA was tested, and the switch fluorescence ratio was 0.931.

In the case of TCACGAACCG, the switch fluorescence ratio is reported as 1.28.

Work on CAGTGAAGTT yielded a switch fluorescence ratio of 1.01.

With TCTTGAATGC the switch fluorescence ratio was 1.02.

AGTTTAGGAA gave a switch fluorescence ratio of 1.02.

AAGACATGAA showed a switch fluorescence ratio of 1.

Sequence AGCATCTTGG has a switch fluorescence ratio of 0.956.

TAGATTACAG showed a switch fluorescence ratio of 1.02.

With AGCCAAAGTC the switch fluorescence ratio was 1.

For AAGGAACGA, the switch fluorescence ratio was 1.03.

With TCTGGTCTTA the switch fluorescence ratio was 0.954.

AAGGTCCTTG gave a switch fluorescence ratio of 1.01.

TAGTTTCCGA showed a switch fluorescence ratio of 1.03.

With GAGGCCCAGC the switch fluorescence ratio was 1.

TACAAGTTGA gave a switch fluorescence ratio of 0.952.

Sequence TCTTATGTA has a switch fluorescence ratio of 0.969.

TCTGTGTACT was tested, and the switch fluorescence ratio was 0.952.

With GAGATACTGC the switch fluorescence ratio was 0.991.

Work on ATAGTAAGAA yielded a switch fluorescence ratio of 0.996.

In the case of GGATCGTTTG, the switch fluorescence ratio is reported as 1.

In the case of CTTCATTAGC, the switch fluorescence ratio is reported as 1.11.

In the case of GATCATCGCC, the switch fluorescence ratio is reported as 1.03.

In the case of AAAAACTCAC, the switch fluorescence ratio is reported as 1.07.

Sequence CGTTTAAAAC has a switch fluorescence ratio of 0.993.

With CATTGGTGAA the switch fluorescence ratio was 0.968.

AATCTAGAGA was tested, and the switch fluorescence ratio was 0.995.

With TCGGCTGGGA the switch fluorescence ratio was 0.981.

For TTTGTGCTAC, the switch fluorescence ratio was 1.45.

Sequence GTTTATAAAA has a switch fluorescence ratio of 0.979.

GGACACTGGG showed a switch fluorescence ratio of 0.89.

GTAATAGTCC gave a switch fluorescence ratio of 2.07.

For CCAAGCAACG, the switch fluorescence ratio was 1.73.

TGTTAGAGCT was tested, and the switch fluorescence ratio was 0.945.

ATTGCAGTTC was tested, and the switch fluorescence ratio was 1.05.

TCGCTATGTG was tested, and the switch fluorescence ratio was 0.99.

In the case of GGGACCGTTG, the switch fluorescence ratio is reported as 1.09.

Sequence ACAGGGGGG has a switch fluorescence ratio of 0.992.

ACGCTTAGTG was tested, and the switch fluorescence ratio was 0.957.

GCGGATTTTT was tested, and the switch fluorescence ratio was 0.968.

AATGTTGGT gave a switch fluorescence ratio of 1.02.

Work on CCTCAGGTCC yielded a switch fluorescence ratio of 1.37.

In the case of GACTGACTTC, the switch fluorescence ratio is reported as 1.05.

With TGTGGGTCCA the switch fluorescence ratio was 1.01.

GGTGACTGGT was tested, and the switch fluorescence ratio was 1.03.

In the case of CACTGTACTG, the switch fluorescence ratio is reported as 1.72.

ATAGCATTCA gave a switch fluorescence ratio of 0.969.

For TCTATGTT, the switch fluorescence ratio was 0.992.

Work on CCGTAACTAA yielded a switch fluorescence ratio of 2.47.

Work on ACGCTAGTCG yielded a switch fluorescence ratio of 1.01.

For TTGCTCCCTC, the switch fluorescence ratio was 1.23.

CGCCGTCCTT gave a switch fluorescence ratio of 0.959.

Work on CGCAGTGGTG yielded a switch fluorescence ratio of 1.07.

In the case of AGTATCTACA, the switch fluorescence ratio is reported as 1.03.

TTAATACCCT was tested, and the switch fluorescence ratio was 1.08.

Work on GGAGTCGTAG yielded a switch fluorescence ratio of 1.01.

For GCCCTAGTGC, the switch fluorescence ratio was 1.04.

For CAGAATTTTT, the switch fluorescence ratio was 0.992.

With AAACAGAGCC the switch fluorescence ratio was 1.02.

In the case of CAGCGATATT, the switch fluorescence ratio is reported as 1.71.

With CTAGGTCCTT the switch fluorescence ratio was 0.977.

TGTAAAGATC showed a switch fluorescence ratio of 0.976.

Sequence ATCCTTAGTT has a switch fluorescence ratio of 1.05.

In the case of GCAAATCACG, the switch fluorescence ratio is reported as 1.04.

ATGCACTATG showed a switch fluorescence ratio of 1.01.

Work on AGCCGCGACG yielded a switch fluorescence ratio of 1.01.

With CATCCACTTA the switch fluorescence ratio was 1.23.

With AATTATTTGG the switch fluorescence ratio was 0.993.

Work on ATGGGAATCT yielded a switch fluorescence ratio of 1.

CATATTAGTT was tested, and the switch fluorescence ratio was 0.993.

In the case of TAATTCATGT, the switch fluorescence ratio is reported as 1.04.

For GAACAAGACA, the switch fluorescence ratio was 0.978.

Work on TCTCGGGCT yielded a switch fluorescence ratio of 1.02.

TATGGGTCGT gave a switch fluorescence ratio of 1.01.

With AATTCATTGG the switch fluorescence ratio was 0.984.

Sequence CGAAGTTCGC has a switch fluorescence ratio of 0.96.

For CGGCAGTTGG, the switch fluorescence ratio was 1.04.

Work on CAGCGCGATG yielded a switch fluorescence ratio of 1.02.

In the case of CCCTTAGTTA, the switch fluorescence ratio is reported as 1.01.

GCTGAGCCAG gave a switch fluorescence ratio of 0.998.

AACTATTGG showed a switch fluorescence ratio of 1.

TTTATCCGTG gave a switch fluorescence ratio of 1.02.

TGCGAGTATA showed a switch fluorescence ratio of 1.01.

AAATATACTT showed a switch fluorescence ratio of 1.01.

In the case of AGCGGGGTGC, the switch fluorescence ratio is reported as 1.08.

TGCTGATAAT gave a switch fluorescence ratio of 0.976.

Sequence GCTGGATGAG has a switch fluorescence ratio of 0.996.

With AGTAAGCGTC the switch fluorescence ratio was 1.

AGGAACTTCA gave a switch fluorescence ratio of 1.04.

Work on TATGAATTCA yielded a switch fluorescence ratio of 1.03.

In the case of GCACTGATTC, the switch fluorescence ratio is reported as 1.05.

CCTTTGACGT showed a switch fluorescence ratio of 1.12.

GAGCTAAACT showed a switch fluorescence ratio of 1.13.

In the case of TTGATCGATA, the switch fluorescence ratio is reported as 1.02.

TACAACATGC gave a switch fluorescence ratio of 1.09.

Sequence TGGTCTGAAC has a switch fluorescence ratio of 0.975.

TAATGGGGTA gave a switch fluorescence ratio of 1.01.

Sequence TCCAACCGGG has a switch fluorescence ratio of 1.07.

In the case of AGACCGGTC, the switch fluorescence ratio is reported as 1.03.

With GCAACTTTGG the switch fluorescence ratio was 0.996.

Work on ATATTGCCGG yielded a switch fluorescence ratio of 1.04.

GCCTACGGG showed a switch fluorescence ratio of 1.06.

Work on GGACTCTGCA yielded a switch fluorescence ratio of 1.76.

Work on GGCCTACCTT yielded a switch fluorescence ratio of 1.07.

ATTATAAACT was tested, and the switch fluorescence ratio was 0.998.

With TTGACTGCAT the switch fluorescence ratio was 1.2.

CTTGCCTCGG was tested, and the switch fluorescence ratio was 1.02.

Work on CATCTATCCC yielded a switch fluorescence ratio of 1.02.

TATTGCGCGA was tested, and the switch fluorescence ratio was 1.1.

Work on TAGTTTAGTA yielded a switch fluorescence ratio of 0.971.

CTTCCGTAGA showed a switch fluorescence ratio of 1.98.

For GGATAAGGAT, the switch fluorescence ratio was 1.02.

AGTCTGGTGA showed a switch fluorescence ratio of 1.02.

Work on TTCAGACGG yielded a switch fluorescence ratio of 1.01.

Sequence GCCTACAGTG has a switch fluorescence ratio of 1.11.

With GCACCCCCAT the switch fluorescence ratio was 1.77.

AGGGACATCT gave a switch fluorescence ratio of 1.13.

GAGTCACGGG showed a switch fluorescence ratio of 0.988.

AAAGGCATCA was tested, and the switch fluorescence ratio was 1.05.

CCGGTCCTTT was tested, and the switch fluorescence ratio was 0.979.

Work on GAGTAAGTAT yielded a switch fluorescence ratio of 0.93.

In the case of TCAAGCTCCA, the switch fluorescence ratio is reported as 1.2.

Work on CGTCTCGAAA yielded a switch fluorescence ratio of 1.02.

TATTTCCTAT gave a switch fluorescence ratio of 0.971.

Sequence ACGTTTGGTT has a switch fluorescence ratio of 0.964.

For TCATTGTGGA, the switch fluorescence ratio was 1.06.

Work on AAGCCAGGCT yielded a switch fluorescence ratio of 0.99.

Work on TATGGTTGCG yielded a switch fluorescence ratio of 1.

Sequence TTTCACGGTC has a switch fluorescence ratio of 0.985.

For GCATATACAA, the switch fluorescence ratio was 1.08.

For CTATGGTAGC, the switch fluorescence ratio was 1.01.

ATCGCAGGTA gave a switch fluorescence ratio of 0.962.

TGAGGCAAGC was tested, and the switch fluorescence ratio was 2.64.

Sequence TCTGGTAGTA has a switch fluorescence ratio of 1.01.

With ATCCAGAGTG the switch fluorescence ratio was 1.65.

GGGCCTATGG gave a switch fluorescence ratio of 1.08.

Source: the supplement of paper PMC10126150
